Where “and” joins values, the source holds several entries; their conditions need not be identical. Equal entries are not always repeated. The list shows a part of the results. Shown are side measurements of this screen, not its main read-out; they come without a call.
Columns and labels:
Assay in all cases: Primary Screen for Target Class Profiling of Small Molecule Inhibitors of Methyltransferases
[1] = target: Glycine N-methyltransferase (Homo sapiens) (UniProt Q14749); conditions: purified enzyme, MTase-Glo SAH luminescence; measured here: GNMT inhibition; at 40 µM; stronger effect = lower value
Outline: (§1)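 Each enzyme was assayed with SAM and its substrate. SAH formation detected by MTase-Glo luminescence; single-point 40 uM screen[…].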

[2] = target: Guanidinoacetate N-methyltransferase (Homo sapiens) (UniProt Q14353); conditions: purified enzyme, MTase-Glo SAH luminescence; measured here: GAMT inhibition; at 40 µM; stronger effect = lower value
Outline: as §1

[3] = target: Histamine N-methyltransferase (Homo sapiens) (UniProt P50135); conditions: purified enzyme, MTase-Glo SAH luminescence; measured here: HNMT inhibition; at 40 µM; stronger effect = lower value
Outline: as §1

[4] = target: Nicotinamide N-methyltransferase (Homo sapiens) (UniProt P40261); conditions: purified enzyme, MTase-Glo SAH luminescence; measured here: NNMT inhibition; at 40 µM; stronger effect = lower value
Outline: as §1

[5] = target: Phenylethanolamine N-methyltransferase (Homo sapiens) (UniProt P11086); conditions: purified enzyme, MTase-Glo SAH luminescence; measured here: PNMT inhibition; at 40 µM; stronger effect = lower value
Outline: as §1
On the % scale 0 is the no-effect control and ±100 the full control effect.

| Structure (SMILES) | activity change, negative = inhibition [1] [%] | activity change, negative = inhibition [2] | activity change, negative = inhibition [3] [%] | activity change, negative = inhibition [4] | activity change, negative = inhibition [5] |
| --- | --- | --- | --- | --- | --- |
| CCCc1cc(C(=O)N2CCC(=O)N(CC3CC3)C(C(C)C)C2)cs1 (configuration not stated) | -2.21 | 0.412% | 1.86 | -6.49% | -1.47% |
| CCOC(=O)c1cnc2ccc(-c3cncc(NS(=O)(=O)c4ccccc4)c3)cn12 | -58.7 | -30.3% and -63% | -54.6 | -40.6% and -69.5% | -45.4% and -52.2% |
| CC(=O)Oc1cc2c(s1)CCN([C@H](C(=O)C1CC1)c1ccccc1F)C2 | -0.066 |  | 6.8 |  |  |
| COc1ccc(CC2(CO)CCN(c3cc(OC)nc(N)n3)CC2)cc1 | -9.16 | -8.12% | -16.5 | -16.4% | -19.5% |
| O=C(C1CCCC1)N1CC2(CCCN(Cc3ccccn3)C2)Cc2ccccc21 (configuration not stated) | -9.63 | -12.7% | -11.3 | -26.7% | -13.7% |
| Cc1cc(C)cc(NC(=O)CCc2nnc3n(Cc4ccc(F)cc4)c(=O)c4ccccc4n23)c1 | -1.44 | 3.49% | 1.73 | -2% | -2.83% |
| COc1cc(C(=O)N2CCC(N3CCN(C)CC3)CC2)ccc1Nc1ncc2c(n1)N(C)c1ccccc1C(=O)N2C | -12.5 | -1.85% | -22 | -29.4% | 0.215% |
| CS(=O)(=O)c1ccc(CC(=O)N[C@H](c2ccccn2)C2CC(O)C2)cc1 (some centres not stated) | -0.845 | -2.52% | -1.01 | 0.19% | 4.76% |
| COc1cc(N2CCC(O)CC2)ccc1Nc1cc(Nc2ccccc2S(=O)(=O)C(C)C)c2cc[nH]c2n1 | -15 | 2.9% | -64.2 | -17.8% | -6.51% |
| CC1(C(=O)NC2CCCC2)Cn2c(nc3ccccc32)C(=O)N1Cc1ccc(F)cc1 (configuration not stated) | -2.12 | -1.24% | 1.8 | 0% | 0.367% |
| CC1(C(=O)NC2CCCC2)Cn2c(ccc2-c2ccco2)C(=O)N1Cc1cccc(Cl)c1 (configuration not stated) | -3.71 | 4.26% | 3.52 | -2.96% | -0.36% |
| COCCOc1ncccc1-c1noc([C@@H]2CCCN2Cc2ccc(OC)cc2O)n1 | -5.07 | -1.72% | -1.26 | -9.52% | -15.1% |
| CCOc1ccc(CN2C(=O)c3cc4ccccc4n3CC2(C)C(=O)NCCC(C)C)cc1 (configuration not stated) | 7.94 | 3.65% | 7.59 | 8.43% | 0.193% |
| COc1cccc(CN2C(=O)c3nc4ccccc4n3CC2(C)C(=O)NCc2ccccc2)c1 (configuration not stated) | -6.46 | 6.02% | -4.63 | -5.87% | -1.04% |
| C=C1C(=O)OC2/C=C(\COC(C)=O)CC/C=C(\C=O)CC(OC(=O)CC(C)C)C12 (configuration not stated) | 0 | 9.37% | 7.92 | -3.39% | 7.26% |
| COC(=O)c1ncn2c1C(=O)N(c1ccc(C)cc1C)C(C)(C(=O)NC1CCCC1)C2 (configuration not stated) | -4.19 | -0.604% | -8.7 | -2.21% | -3.62% |

| Structure (SMILES) | activity change, negative = inhibition [1] [%] | activity change, negative = inhibition [2] | activity change, negative = inhibition [3] [%] | activity change, negative = inhibition [4] | activity change, negative = inhibition [5] |
| --- | --- | --- | --- | --- | --- |
| CN1CCC(N[C@@H]2CCC[C@@H](C(=O)NC3CC3)CC(=O)N(C)C2)CC1 | -5.22 | -8.35% | -4.69 | -10.8% | -9.3% |
| COc1ccc(N2C(=O)CSc3c(c4ccccc4n3C)C2C(=O)NCc2ccccc2)cc1OC (configuration not stated) | 3.58 | 0% | 8.14 | 1.18% | 1.1% |
| Cc1nnn2c(C(=O)NCc3ccc(Cl)cc3)cccc12 | -16.9 | -9.98% | -7.26 | -22.6% | -10.3% |
| CC[C@H]1CN(C(=O)NC(C)C)CC[C@H]1CC(=O)N(C)CCC#N | -5.45 | -5.28% | -3.58 | -7.54% | -7.6% |
| O=C(c1ccccc1)N1CC2(CCCN2Cc2cccnc2)Cc2ccccc21 (configuration not stated) | -6.28 | -8.95% | -8.82 | -12.6% | -2.88% |
| Cc1ccc(C)c(N2CCN(C(=O)c3ccc4c(=O)nc5c(-c6ccccc6)n[nH]n5c4c3)CC2)c1 | -21.3 | 2.75% | -0.002 | -7.35% | -3.12% |
| Cc1noc(C)c1CCCNC(=O)c1ccc(NC[C@H]2C[C@H]3C=C[C@H]2C32CC2)nc1 | -3.52 | -3.58% | -21 | -10.9% | -1.98% |
| CN(Cc1ccc(F)cc1)C1CCCc2ccccc21 (configuration not stated) | -1.57 | -0.95% | -2.98 | -5.78% | -1.66% |
| COc1cc(C2c3cc4c(c(O)c3CC(CO)C2C(=O)O)OCO4)cc(OC)c1O (configuration not stated) | 6.61 | 3.61% | 10.7 | -7.17% | 2.08% |
| NC(Cc1c[nH]c2ccc(O)cc12)C(=O)O (configuration not stated) | -6.04 | 5.36% | -27 | -9.17% | 5.36% |
| CCCn1c(=O)c2ccccc2n2c(=O)n(CC(=O)c3ccc(Br)cc3)nc12 | 4.26 | 0% | 10.7 | 5.88% | 4.26% |
| CC(=O)NC1(C)CN(Cc2ccc(-c3cccc(F)c3)s2)C1 | -2.64 | -1.34% | -15.6 | -2.02% | -0.172% |
| O=C(CCc1nnc2n(Cc3ccc(Cl)cc3)c(=O)c3ccccc3n12)NCC1CCCO1 (configuration not stated) | -2.95 | 1.54% | 2.14 | 8.6% | -1.95% |
| CCn1ccc(C(=O)N2[C@@H]3CC[C@H]2CC(NC(=O)c2ccc(F)cc2)C3)n1 (some centres not stated) | 0.228 | 0.67% | 2.74 | -0.997% | 6.73% |
| CC(C)NC(=O)N[C@H]1C[C@H]2C(=O)NC[C@@H](CCC(=O)N3CCN(c4ccccn4)CC3)N2C1 | -4.4 | -5.32% | -0.883 | -2.97% | -12.3% |

From PubChem BioAssay AID1745853 (National Center for Advancing Translational Sciences (NCATS), 2022)
